Part of at least one peptide drawing is inferred or uncertain, most often the ends. Ends that are not written are not given here.
How the values were obtained:
THP-1 [1] = experiment: Migration assay, THP-1 cells (CHEMOTX); type: cell-based, human; settings: cells migrated through filter after 2 hours
hPBMCs [2] = experiment: LPS neutralisation in hPBMCs (cytokine ELISA); type: cell-based, human; settings: inhibition of LPS evoked response vs control cells (100%)
THP-1 [3] = experiment: LPS neutralisation in THP-1 cells (cytokine ELISA); type: cell-based, human; settings: inhibition of LPS evoked response vs control cells (100%)
hPBMCs [4] = experiment: Peptide-induced MCP-1 production in hPBMCs (ELISA); type: cell-based, human; settings: MCP-1 production vs control cells (100%)
HD11 [5] = experiment: LPS neutralisation in HD11 cells (Real-Time PCR); type: cell-based, chicken; settings: 4 h stimulation
HD11 [6] = experiment: Peptide-induced cytokine production in HD11 cells (Real-Time PCR); type: cell-based, chicken
[7] = tested on: Gram(−) and Gram(+) type bacteria; type: cell-based

| Substance | Migration THP-1 (THP-1 [1]) | LPS neutralisation hPBMCs IL-6 (hPBMCs [2]) | LPS neutralisation hPBMCs TNFα (hPBMCs [2]) | LPS neutralisation THP-1 TNFα (THP-1 [3]) | further results |
| --- | --- | --- | --- | --- | --- |
| FGRFLRKIRRFRPK [CMAP(2-15), FGRFLRKIRRFRPK] | − (<1000 cells migrated) | − (<25% inhibition) | − (<25% inhibition) | − (<25% inhibition) |  |
| FLRKIRRFRPK [CMAP(5-15), FLRKIRRFRPK] | − (<1000 cells migrated) | − (<25% inhibition) | − (<25% inhibition) | − (<25% inhibition) |  |
| GRFLRKIRRFRPK [CMAP(3-15), GRFLRKIRRFRPK] | − (<1000 cells migrated) | − (<25% inhibition) | − (<25% inhibition) | − (<25% inhibition) |  |
| RFGRFLRKIR [CMAP(l-l0), RFGRFLRKIR] | − (<1000 cells migrated) | − (<25% inhibition) | − (<25% inhibition) | +/− (>25% inhibition) |  |
| RFGRFLRKIRR [CMAP(l-ll), RFGRFLRKIRR] | − (<1000 cells migrated) | − (<25% inhibition) | − (<25% inhibition) | +/− (>25% inhibition) |  |
| RFGRFLRKIRRF [CMAP(1-12), RFGRFLRKIRRF] | − (<1000 cells migrated) | − (<25% inhibition) | − (<25% inhibition) | + (>75% inhibition) |  |
| RFGRFLRKIRRFR [CMAP(1-13), RFGRFLRKIRRFR] | − (<1000 cells migrated) | − (<25% inhibition) | − (<25% inhibition) | +/− (>25% inhibition) |  |
| RFGRFLRKIRRFRPK [CMAP(1-15), RFGRFLRKIRRFRPK] | − (<1000 cells migrated) | +/− (>25% inhibition) | + (>75% inhibition) | + (>75% inhibition) | Peptide-induced hPBMCs MCP-1 (hPBMCs [4]): − (<200% MCP-1 production (<25% of max.)); LPS neutralisation hPBMCs IL-8 (hPBMCs [2]): − (<25% inhibition); LPS neutralisation hPBMCs IL-10 (hPBMCs [2]): + (>75% inhibition); LPS neutralisation HD11 IL-1β (HD11 [5]): − (<25% inhibition); LPS neutralisation HD11 IL-8 (HD11 [5]): − (<25% inhibition); LPS neutralisation HD11 MCP-3 (HD11 [5]): − (<25% inhibition); LPS neutralisation HD11 RANTES (HD11 [5]): − (<25% inhibition); Peptide-induced HD11 IL-1β (HD11 [6]; 4 h stimulation): − (<2-fold increase in gene expression levels); Peptide-induced HD11 IL-8 (HD11 [6]; 4 h stimulation): +/− (>2-fold increase in gene expression levels); Peptide-induced HD11 MCP-3 (HD11 [6]; 4 h stimulation): +/− (>2-fold increase in gene expression levels); Peptide-induced HD11 RANTES (HD11 [6]; 4 h stimulation): +/− (>2-fold increase in gene expression levels); Peptide-induced HD11 IL-1β (HD11 [6]; 24 h stimulation): − (<2-fold increase in gene expression levels); Peptide-induced HD11 IL-8 (HD11 [6]; 24 h stimulation): − (<2-fold increase in gene expression levels); Peptide-induced HD11 MCP-3 (HD11 [6]; 24 h stimulation): − (<2-fold increase in gene expression levels); Peptide-induced HD11 RANTES (HD11 [6]; 24 h stimulation): − (<2-fold increase in gene expression levels) |
| RFGRFLRKIRRFRPKVTITIQ [CMAP1-21] |  | − (<25% inhibition) | + (>75% inhibition) |  | Peptide-induced hPBMCs MCP-1 (hPBMCs [4]): ++ (>480% MCP-1 production (>95% of max.)); LPS neutralisation hPBMCs IL-8 (hPBMCs [2]): − (<25% inhibition); LPS neutralisation hPBMCs IL-10 (hPBMCs [2]): +/− (>25% inhibition); LPS neutralisation HD11 IL-1β (HD11 [5]): − (<25% inhibition); LPS neutralisation HD11 IL-8 (HD11 [5]): − (<25% inhibition); LPS neutralisation HD11 MCP-3 (HD11 [5]): − (<25% inhibition); LPS neutralisation HD11 RANTES (HD11 [5]): +/− (>25% inhibition); Peptide-induced HD11 IL-1β (HD11 [6]; 4 h stimulation): +/− (>2-fold increase in gene expression levels); Peptide-induced HD11 IL-8 (HD11 [6]; 4 h stimulation): + (>4-fold increase in gene expression levels); Peptide-induced HD11 MCP-3 (HD11 [6]; 4 h stimulation): + (>4-fold increase in gene expression levels); Peptide-induced HD11 RANTES (HD11 [6]; 4 h stimulation): ++ (>8-fold increase in gene expression levels); Peptide-induced HD11 IL-1β (HD11 [6]; 24 h stimulation): +/− (>2-fold increase in gene expression levels); Peptide-induced HD11 IL-8 (HD11 [6]; 24 h stimulation): − (<2-fold increase in gene expression levels); Peptide-induced HD11 MCP-3 (HD11 [6]; 24 h stimulation): + (>4-fold increase in gene expression levels); Peptide-induced HD11 RANTES (HD11 [6]; 24 h stimulation): + (>4-fold increase in gene expression levels) |
| RFGRFLRKIRRFRPKVTITIQGSARF [CMAP26] | − (<1000 cells migrated) | ++ (>95% inhibition) | ++ (>95% inhibition) | + (>75% inhibition) | Peptide-induced hPBMCs MCP-1 (hPBMCs [4]): + (>400% MCP-1 production (>75% of max.)); LPS neutralisation hPBMCs IL-8 (hPBMCs [2]): +/− (>25% inhibition); LPS neutralisation hPBMCs IL-10 (hPBMCs [2]): ++ (>95% inhibition) |
| RFGRFLRKIRRFRPKVTITIQGSARF-NH2 [CMAP26-NH2, reference compound] |  | + (>75% inhibition) | ++ (>95% inhibition) |  | Peptide-induced hPBMCs MCP-1 (hPBMCs [4]): ++ (>480% MCP-1 production (>95% of max.)); LPS neutralisation hPBMCs IL-8 (hPBMCs [2]): − (<25% inhibition); LPS neutralisation hPBMCs IL-10 (hPBMCs [2]): + (>75% inhibition); LPS neutralisation HD11 IL-1β (HD11 [5]): + (>75% inhibition); LPS neutralisation HD11 IL-8 (HD11 [5]): − (<25% inhibition); LPS neutralisation HD11 MCP-3 (HD11 [5]): − (<25% inhibition); LPS neutralisation HD11 RANTES (HD11 [5]): +/− (>25% inhibition); Peptide-induced HD11 IL-1β (HD11 [6]; 4 h stimulation): ++ (>8-fold increase in gene expression levels); Peptide-induced HD11 IL-8 (HD11 [6]; 4 h stimulation): ++ (>8-fold increase in gene expression levels); Peptide-induced HD11 MCP-3 (HD11 [6]; 4 h stimulation): + (>4-fold increase in gene expression levels); Peptide-induced HD11 RANTES (HD11 [6]; 4 h stimulation): ++ (>8-fold increase in gene expression levels); Peptide-induced HD11 IL-1β (HD11 [6]; 24 h stimulation): − (<2-fold increase in gene expression levels); Peptide-induced HD11 IL-8 (HD11 [6]; 24 h stimulation): − (<2-fold increase in gene expression levels); Peptide-induced HD11 MCP-3 (HD11 [6]; 24 h stimulation): − (<2-fold increase in gene expression levels); Peptide-induced HD11 RANTES (HD11 [6]; 24 h stimulation): − (<2-fold increase in gene expression levels) |
| RFGRFLRKIRRFRPKVTITIQGSARFG [CMAP27, reference compound] | +/− (>1000 cells migrated) | + (>75% inhibition) | ++ (>95% inhibition) | + (>75% inhibition) | Peptide-induced hPBMCs MCP-1 (hPBMCs [4]): ++ (>480% MCP-1 production (>95% of max.)); LPS neutralisation hPBMCs IL-8 (hPBMCs [2]): +/− (>25% inhibition); LPS neutralisation hPBMCs IL-10 (hPBMCs [2]): + (>75% inhibition); antimicrobial activity [7]: mainly active on Gram(−) type bacteria |
| RFGRLLRKIRRFRPK [CMAP(1-15) (F5→L), RFGRLLRKIRRFRPK] | − (<1000 cells migrated) | − (<25% inhibition) | − (<25% inhibition) | +/− (>25% inhibition) |  |
| RFGRWLRKIRRFRPK [CMAP(1-15) (F5→W), RFGRWLRKIRRFRPK] | + (>2000 cells migrated) | +/− (>25% inhibition) | + (>75% inhibition) | + (>75% inhibition) |  |
| RFLRKIRRFRPK [CMAP(4-15), RFLRKIRRFRPK] | − (<1000 cells migrated) | − (<25% inhibition) | − (<25% inhibition) | − (<25% inhibition) |  |
| RLGRFLRKIRRFRPK [CMAP(1-15) (F2→L), RLGRFLRKIRRFRPK] | − (<1000 cells migrated) | − (<25% inhibition) | +/− (>25% inhibition) | + (>75% inhibition) |  |
| RLGRLLRKIRRLRPK [CMAP(1-15) (3xF→L), RLGRLLRKIRRLRPK] | − (<1000 cells migrated) | − (<25% inhibition) | + (>75% inhibition) | + (>75% inhibition) |  |
| RWGRFLRKIRRFRPK [CMAP(1-15) (F2→W), RWGRFLRKIRRFRPK] | + (>2000 cells migrated) | +/− (>25% inhibition) | + (>75% inhibition) | + (>75% inhibition) |  |
| RWGRWLRKIRRWRPK [CMAP(1-15) (3xF→W), RWGRWLRKIRRWRPK] | ++ (>6000 cells migrated) | ++ (>95% inhibition) | ++ (>95% inhibition) | + (>75% inhibition) |  |

Source: US9006174B2 (priority 2009, dated 2015)
